{"source": "the supplement of paper PMC3334620", "note": "Whole data set: some 33,000 sequences, median “E-score (-0.5 to 0.5)” near -0.035, cut for the highest 2% near 0.34. The list shows a part of the results."}
{"biological_target": "T1, Mot3 (UniProt P54785)", "T1 sequence": "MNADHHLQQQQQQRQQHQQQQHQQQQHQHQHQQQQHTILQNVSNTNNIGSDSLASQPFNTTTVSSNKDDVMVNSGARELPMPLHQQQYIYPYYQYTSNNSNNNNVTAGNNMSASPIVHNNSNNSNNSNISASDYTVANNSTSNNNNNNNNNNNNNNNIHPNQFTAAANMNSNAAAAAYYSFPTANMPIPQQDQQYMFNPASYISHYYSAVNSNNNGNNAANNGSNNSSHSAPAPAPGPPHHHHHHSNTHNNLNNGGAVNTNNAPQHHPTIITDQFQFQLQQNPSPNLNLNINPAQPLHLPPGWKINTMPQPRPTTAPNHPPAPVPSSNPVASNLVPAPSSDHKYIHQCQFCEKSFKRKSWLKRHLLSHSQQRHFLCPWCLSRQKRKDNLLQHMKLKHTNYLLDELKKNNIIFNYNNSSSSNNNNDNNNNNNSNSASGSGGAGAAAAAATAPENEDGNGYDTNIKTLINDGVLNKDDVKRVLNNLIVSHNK", "test": "PBM E-score (8-mer binding enrichment) (E-score (-0.5 to 0.5)); higher = stronger / more preferred TF binding; most listed sequences are background and not binding sites", "conditions": "protein concentration: 200 nM; construct: GST-full length", "in_short": "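Yeast transcription factors, full-length or as DNA-binding domains, were expressed with a GST tag using PURExpress in vitro transcription/translation. At about 100-200 nM they were applied to universal all-10-mer Agilent arrays, double-stranded by primer extension on fresh or once-stripped slides. Fluorescent anti-GST detected bound protein, and masliner normalised the scans. E-scores for ungapped eight-base words, pooled with reverse complements, came from the Universal PBM Analysis Suite.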"}
{"sequence": "CATCTTAA", "PBM E-score": 0.0785}
{"sequence": "CAGGGCAA", "PBM E-score": 0.0999}
{"sequence": "AGTCAACA", "PBM E-score": 0.139}
{"sequence": "GGGGGCAA", "PBM E-score": -0.235}
{"sequence": "ACTCCCTG", "PBM E-score": -0.0992}
{"sequence": "CAGACCTC", "PBM E-score": -0.182}
{"sequence": "AAGTCGTA", "PBM E-score": 0.0233}
{"sequence": "ATATATCG", "PBM E-score": 0.0754}
{"sequence": "CCTATAAC", "PBM E-score": 0.185}
{"sequence": "CCGAGTAC", "PBM E-score": -0.107}
{"sequence": "TACGGCGA", "PBM E-score": -0.155}
{"sequence": "GTACAATA", "PBM E-score": 0.233}
{"sequence": "GGCGGCGA", "PBM E-score": -0.165}
{"sequence": "AGAGCATC", "PBM E-score": -0.309}
{"sequence": "AGCATGGA", "PBM E-score": -0.115}
{"sequence": "AGCGACAG", "PBM E-score": -0.0977}
{"sequence": "CAAAATAG", "PBM E-score": 0.0224}
{"sequence": "TGAATACA", "PBM E-score": 0.264}
{"sequence": "AAAAGTCT", "PBM E-score": 0.0532}
{"sequence": "CATCAAGA", "PBM E-score": 0.00242}
{"sequence": "AACGTAAC", "PBM E-score": 0.205}
{"sequence": "AGAAGCCG", "PBM E-score": -0.291}
{"sequence": "CCCAAGAG", "PBM E-score": -0.15}
{"sequence": "AGGGCACC", "PBM E-score": 0.246}
{"sequence": "AATAAAGG", "PBM E-score": -0.0129}
{"sequence": "TGAGTTAA", "PBM E-score": 0.164}
{"sequence": "AGCTCCTG", "PBM E-score": 0.104}
{"sequence": "CGCAGAGA", "PBM E-score": -0.105}
{"sequence": "GGTGAAAA", "PBM E-score": -0.0177}
{"sequence": "AATAAATA", "PBM E-score": 0.162}
{"sequence": "GTGGTGTA", "PBM E-score": 0.228}
{"sequence": "AGCGACTC", "PBM E-score": -0.134}
{"sequence": "GCTAGTCA", "PBM E-score": -0.23}
{"sequence": "GGCGCTCA", "PBM E-score": -0.193}
{"sequence": "CTAACAGA", "PBM E-score": -0.0801}
{"sequence": "ACTTGGCT", "PBM E-score": 0.0138}
{"sequence": "AGCTATTC", "PBM E-score": -0.107}
{"sequence": "CACCCGAG", "PBM E-score": -0.336}
{"sequence": "ATGCAGTC", "PBM E-score": -0.0608}
{"sequence": "ACAACAAT", "PBM E-score": 0.182}
{"sequence": "GATCTCCC", "PBM E-score": -0.297}
{"sequence": "ATATATCA", "PBM E-score": -0.0338}
{"sequence": "AAGATCCT", "PBM E-score": -0.0689}
{"sequence": "GCCCAAGA", "PBM E-score": -0.121}
{"sequence": "AATTGAGG", "PBM E-score": 0.0355}
{"sequence": "CGGGCGCC", "PBM E-score": -0.149}
{"sequence": "ATGCCAGA", "PBM E-score": -0.151}
{"sequence": "AGTTGGCC", "PBM E-score": -0.184}
{"sequence": "GCTTCCAC", "PBM E-score": -0.233}
{"sequence": "ACCAAACT", "PBM E-score": -0.0325}
{"sequence": "ACCATGAA", "PBM E-score": -0.0629}
{"sequence": "GTGCATAA", "PBM E-score": 0.084}
{"sequence": "GTGGTCCA", "PBM E-score": -0.178}
{"sequence": "AAAGATAC", "PBM E-score": -0.028}
{"sequence": "GCTGTAAC", "PBM E-score": 0.0586}
{"sequence": "AATCACCC", "PBM E-score": -0.0596}
{"sequence": "AGAGGGGC", "PBM E-score": -0.00511}
{"sequence": "AAGGTCGC", "PBM E-score": -0.233}
{"sequence": "ACAGATCT", "PBM E-score": 0.0117}
{"sequence": "CTATTCAG", "PBM E-score": 0.159}
{"sequence": "AAGGCAAC", "PBM E-score": 0.487}
{"sequence": "CAGATTTA", "PBM E-score": 0.114}
{"sequence": "ACGGGACA", "PBM E-score": -0.184}
{"sequence": "ACCGCCTC", "PBM E-score": -0.0433}
{"sequence": "CAGTAATG", "PBM E-score": 0.163}
{"sequence": "TCACTAGA", "PBM E-score": -0.0958}
{"sequence": "CTTAGTCC", "PBM E-score": -0.142}
{"sequence": "TAGCCGAA", "PBM E-score": -0.273}
{"sequence": "TACCGCTA", "PBM E-score": 0.0203}
{"sequence": "CGTGTGGA", "PBM E-score": 0.0449}
{"sequence": "AGACACTC", "PBM E-score": -0.144}
{"sequence": "AGAACCGC", "PBM E-score": 0.164}
{"sequence": "AAAAACTA", "PBM E-score": 0.151}
{"sequence": "GAGACACA", "PBM E-score": -0.109}
{"sequence": "ACTTCAAC", "PBM E-score": 0.0553}
{"sequence": "GTCGCCGA", "PBM E-score": -0.141}
{"sequence": "GCAGTAAC", "PBM E-score": -0.0362}
{"sequence": "AACCCGTC", "PBM E-score": -0.122}
{"sequence": "ATACTCTA", "PBM E-score": 0.00888}
{"sequence": "TTAAAGAA", "PBM E-score": 0.178}
{"sequence": "TAAGGGAA", "PBM E-score": 0.162}
{"sequence": "CATCCGGC", "PBM E-score": -0.264}
{"sequence": "CATTCAAC", "PBM E-score": 0.133}
{"sequence": "ATTAGATG", "PBM E-score": 0.179}
{"sequence": "AGTAACTA", "PBM E-score": -0.00888}
{"sequence": "CAAATAAG", "PBM E-score": -0.0976}
